Measured values reported in PubChem BioAssay AID1345083 (National Center for Advancing Translational Sciences (NCATS), 2018).
Among all 94,000 compounds or so, about 6,200 (6.6%) were called active. The inconclusive results got no clear call from the source; some entries with a clear call stand among them for comparison. Calls come from the whole dose curve; as a rule, active = well fitted inhibition curve with a large enough effect; inconclusive = small, poorly fitted or top-dose-only effect; inactive = flat fitted curve, though single readings scatter. Where the call is inconclusive, the potency comes from a doubtful curve fit.
Potency is the fitted concentration of half-maximal effect; tags give direction and shape of the fitted curve.

Assay: Cytotoxic Profiling in HEK 293 Cell Line of Diverse Libraries Using Quantitative High-Throughput Screening; note: nearly all actives have a fitted effect of over 60% in size
Conditions: HEK 293 viability, ATP luminescence (CellTiter-Glo), 48-72 h; series mostly up to 115 µM
Procedure, shortened: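 Viability of HEK 293 cells, plated at 250 cells/well, was judged by cellular ATP after compound treatment for 48 or 72 hr. Luminescence was imaged 10 min after CellTiter-Glo addition at room temperature.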
In the case of `O=C(NC1CCCCC1)O[C@@H]1CO[C@H]2[C@@H]1OC[C@@H]2NS(=O)(=O)c1ccc(Cl)cc1`, the Potency is reported as inconclusive: 28.2 µM [inhibitor, full curve]. With `CC1(C)C(=O)N(Cc2ccccc2)[C@H]2CN(Cc3ccc(C#N)cc3)C[C@H]2[S+]1(=O)[O-]` the Potency was inconclusive: 112 µM [inhibitor, partial curve]. With `CC(C)(C)c1[nH]nc2c1C(c1ccnc3ccccc13)CC(=O)N2` (stereo not given) the Potency was “inactive”. In the case of `CC(C)c1ccc(N2CC(C(=O)N(C)Cc3cnccn3)CC2=O)cc1` (stereo not given), the Potency is reported as “inactive”. With `c1cnc2nc(C3CCN(CC4CCCCC4)C3)[nH]c2c1` (stereo not given) the Potency was inconclusive: 126 µM [inhibitor, single point]. With `O=C(CCC[C@H]1NC[C@@H]2C[C@H]1CN(Cc1ccccc1)C2)NCc1ccc(N2CCOCC2)cc1` the Potency was “inactive”. With `O=C(NCC1CCCO1)c1cnc2c(c1)N(C(=O)CCc1ccccc1)CCC2` (stereo not given) the Potency was inconclusive: 112 µM [inhibitor, partial curve, poor fit]. With `CC1(C)C(=O)N(CCOc2ccccc2)[C@H]2CN(C3CCOCC3)C[C@H]2[S+]1(=O)[O-]` the Potency was “inactive”. For `O=C(O)c1cncc(N2CCC3(CC2)CNC(C(=O)O)C3)n1` (stereo not given), the Potency was “inactive”. In the case of `Cc1cc(C)n(CCC(=O)N2CCC(CCOc3ccc(F)cc3)C2)n1` (stereo not given), the Potency is reported as active: 79.4 µM. In the case of `Cc1ccc(-c2cc3c(=O)n(CCNC(=O)c4nn(C)c5ccccc45)ccn3n2)c(C)c1`, the Potency is reported as inconclusive: 44.7 µM [inhibitor, partial curve, poor fit]. With `O=C(Cc1ccc(F)cc1)N1CCC2(CC1)NC(=O)N(c1ccccc1)N2` the Potency was inconclusive: 35.5 µM [inhibitor, full curve]. For `O=C(c1cc(F)ccc1F)N1CCN(C(=O)c2nnn3c2COC(c2ccccc2)C3)CC1` (stereo not given), the Potency was inconclusive: 50.1 µM [inhibitor, partial curve, poor fit]. For `O=C1CC2(CCN(Cc3ccc(C(F)(F)F)cc3)CC2)Oc2cc(Cl)ccc21`, the Potency was inconclusive: 44.7 µM [inhibitor, partial curve, poor fit]. With `CC(=O)c1ccc(NC(=O)O[C@@H]2CO[C@H]3[C@@H]2OC[C@@H]3NC(=O)Nc2ccc(Oc3ccccc3)cc2)cc1` the Potency was active: 31.6 µM. For `Cc1nc(-c2ccc(Cl)cc2)n(Cc2ccc(F)c(F)c2)c(=O)c1CCO`, the Potency was active: 44.7 µM. In the case of `COc1cccc(C2Cn3nnc(-c4nc(-c5ccc(Br)cc5)no4)c3CO2)c1` (stereo not given), the Potency is reported as “inactive”. For `CN(C)c1ccc2c(c1)CN(C(=O)c1cnn(C)c1)CCO2`, the Potency was “inactive”. In the case of `O=C(CC(c1cccc([N+](=O)[O-])c1)c1c[nH]c2ccccc12)NCc1ccccc1` (stereo not given), the Potency is reported as inconclusive: 31.6 µM [inhibitor, full curve]. For `COCC(=O)NC1CCN(c2nccc(Nc3ccccc3Cl)n2)CC1`, the Potency was inconclusive: 50.1 µM [inhibitor, partial curve, poor fit]. In the case of `CC(C)c1ccc(CC(=O)N2CCCc3ncc(C(=O)N(C)c4ccccc4)cc32)cc1`, the Potency is reported as inconclusive: 63.1 µM [inhibitor, partial curve, poor fit]. In the case of `Cc1cc2nc3n(c(=O)c2n1CC(=O)Nc1cccc(C(F)(F)F)c1)CCCCC3`, the Potency is reported as inconclusive: 56.2 µM [inhibitor, partial curve, poor fit]. For `CC1CCN(c2ccc(CNC(=O)C3(C)CCCCC(=O)N3)cc2)CC1` (stereo not given), the Potency was inconclusive: 39.8 µM [inhibitor, partial curve, poor fit]. In the case of `COc1ncccc1-c1cnc2[nH]cc(CC(=O)Nc3ccncc3)c2c1`, the Potency is reported as active: 63.1 µM. In the case of `COCC(=O)Nc1ccc(-c2noc([C@@H]3CCCN3Cc3ccc(OC(F)(F)F)cc3)n2)cn1`, the Potency is reported as inconclusive: 35.5 µM [inhibitor, partial curve, poor fit]. With `COCC(=O)N1CCc2nc(-c3ccc(Cl)cc3)nc(-c3ccccc3)c2C1` the Potency was inconclusive: 79.4 µM [inhibitor, partial curve]. In the case of `C#CCNC(=O)c1ccc2nnc(-c3ccc(Cl)cc3)n2c1`, the Potency is reported as “inactive”. With `COc1ccccc1NC(=O)c1cc2c(N3CCSCC3)nc(C)cn2n1` the Potency was active: 50.1 µM. With `COc1ccc(CN2CCC(CO)(CCCc3ccccc3)CC2)c(Cl)c1OC` the Potency was inconclusive: 56.2 µM [inhibitor, partial curve, poor fit]. For `O=C(NCCc1ccc(Cl)cc1)C1CCc2nnc(-c3cccc(C(F)(F)F)c3)n21` (stereo not given), the Potency was inconclusive: 44.7 µM [inhibitor, full curve, poor fit]. For `O=C(NC1CC1)c1ccccc1OC1CN(Cc2ccc(C(F)(F)F)cc2)C1`, the Potency was active: 89.1 µM. In the case of `CCOc1ccccc1C(=O)NC(C)C(=O)N1CCN(c2ccccn2)CC1` (stereo not given), the Potency is reported as inconclusive: 89.1 µM [inhibitor, single point]. For `Clc1cccc(CN2CC[C@H](c3nnc(-c4ccncc4)o3)C2)c1`, the Potency was inconclusive: 112 µM [inhibitor, partial curve, poor fit]. In the case of `CN1Cc2ncnc(N3CCN(Cc4ccccc4)CC3)c2CN(c2ccc(Cl)cc2)C1=O`, the Potency is reported as inconclusive: 89.1 µM [inhibitor, single point]. For `C=CCO[C@@H]1C[C@H]2C(=O)Nc3ccc(-c4ccc(OC)cc4)cc3C(=O)N2C1`, the Potency was inconclusive: 63.1 µM [inhibitor, full curve, poor fit]. With `O=C(NCC1COc2ncncc2C(=O)N1Cc1ccccc1)c1cccs1` (stereo not given) the Potency was inconclusive: 28.2 µM [inhibitor, full curve, poor fit]. In the case of `O=c1[nH]c(N2CCOCC2)nc2c1CCN(Cc1ccc(Cl)c(F)c1)CC2`, the Potency is reported as inconclusive: 31.6 µM [inhibitor, full curve]. For `COc1ccc(NC(=O)Cn2cccc2-c2nc(-c3ccccc3)no2)cc1OC`, the Potency was active: 31.6 µM. With `Cn1cc(-c2cccc(COc3ccc4c(cnn4CC[S+](C)(=O)[O-])c3)c2)cn1` the Potency was inconclusive: 31.6 µM [inhibitor, full curve, poor fit]. For `C=CCNC(=O)[C@@H]1Cc2cn(Cc3ccncc3)c3cccc(c23)[C@H](CC(C)C)N1`, the Potency was active: 35.5 µM.
